Measurements reported in the supplement of paper PMC11417369.
± gives the standard deviation of the averaged measurements. The list shows a part of the results.

Test system: PfAP2-I AP2 domain 3 (GST-tagged)
Assay: gcPBM binding intensity (ln(normalized median fluorescence intensity)); higher = stronger DNA binding
In short: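 DNA-binding domains from P. falciparum, fused to GST and produced in E. coli, were put on an Agilent 4 × 180k double-stranded probe array for 1 h in 1× PBS holding 1% milk, 0.2 mg/ml BSA, 0.5% salmon testes DNA and 0.03% Triton X-100. Probes were primer-extended, 36 bp long and drawn from intergenic genomic regions, with negative controls included. After Alexa488 anti-GST antibody detection and a 488 nm scan, binding intensity was set as the highest Masliner-normalised natural-log median intensity across replicate spots of either probe orientation.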

Sequence	gcPBM binding intensity (ln)
TTCGCCCTAAATAGAGTGCATTATATATATTAATAT	11.4 ± 0.58
TTCCAACCAATACAAACATGCATTTGAAAAAATGTA [TGCATGCA_site119]	7.71 ± 0.36
TTGTATTACATAAATGTTCTTTATTATTTGATAAAA [CACACA_negctrl_site903]	7.48 ± 0.42
TATATAATATATTAATGTACTTAAAATATATTCTAT [XGTACX_site1235]	7.51 ± 0.28
TTTTTTAAATATTAAAAATGGGATCTTATAACATAT [GTGCAC_negctrl_site666]	7.65 ± 0.38
TGTATAAACCCACGTACACACACTAAGTATATCCAA [CACACA_site1605]	8.32 ± 0.2
TAAAATATATTGCCAGTGCATAATATATGTAATTAT	10.6 ± 0.6
TTATTTTTAACGTACGCACACATATAAATATATTTA [CACACA_site1976]	8.48 ± 0.28
AACTAATAAAAAAAAAAAACATTAAACAGGACAAAT [XGTACX_negctrl_site287]	7.68 ± 0.8
TAAACAAATAAATAAACACACAATATAGGTATATAT [CACACA_site7739]	7.64 ± 0.61
AATAAAATATACTATTGTACATATGGAACTACTTGA [XGTACX_site8928]	7.53 ± 0.43
TTGTTTTTAGTTTATACACACCATATTAAAATAATG [CACACA_site5675]	8.35 ± 0.44
ATTTATTATATATAGTGTACGTTCTTAATTATAATT [XGTACX_site7480]	7.95 ± 0.35
CACATTTAGAAATAGTTTTATTTTGTATATTCTATT [CACACA_negctrl_site1382]	7.33 ± 0.49
TTTTGTATATATCACATTAAAAGAAAAAAATATATG [GTGCAC_negctrl_site120]	7.7 ± 0.39
GTATGTGTATGTGTATGTACATATGTATGTATAAAA [XGTACX_site8191]	8.45 ± 0.83
TATACATTTATGTACACACACATATCTGTATATTTA [CACACA_site5617]	7.67 ± 0.28
TATATATATTTCCAGTGTACTTATTTTTTAATCAAT [XGTACX_site8220]	8.28 ± 0.49
TCCTCAAAAAAATAAAATAATTTATACTTTTTTAAA [GTGCAC_negctrl_site724]	7.19 ± 0.3
AACCAATTATATTTACGTACGTACGGTTTTTTATAT [XGTACX_site1291]	7.94 ± 0.48
AATAAAAAATATAACACAAATATGTATATATATATA [TGCATGCA_negctrl_site245]	9.01
ACATATAAAATGTATACACACAAATATTACATATAT [CACACA_site1472]	7.9 ± 0.35
CAAAAAAAAAAAAAAAATAAATAAAGGAAATAAAAA [CACACA_negctrl_site20]	7.41 ± 0.57

Sequence	gcPBM binding intensity (ln)
TTCTCAAAGAAGAAAAAGTTTTTTTAATTTTTCTTT [XGTACX_negctrl_site543]	7.09 ± 0.52
AATATATTTTTTTTTTGTACATATTGTAAAATAATA [XGTACX_site6805]	7.83 ± 0.22
ATATATTAATATACTCGTACATATTCTTATTGTGTA [XGTACX_site3728]	7.7 ± 0.63
GTGTAGTTAAAAAAAAGTACAGATTTTTTTTTTTTT [XGTACX_site849]	8.05 ± 0.35
ATAAGAACGTCTATGTGTACGCAGCAAAACTGAGTT [XGTACX_site6385]	7.83 ± 0.57
AAAAAAAAAAAAACAAGTACAAAGGATAGAAAAAAA [XGTACX_site4133]	8.02 ± 0.43
ATAGAATATTGATATTGTACGTTATCTTAAAACAAT [XGTACX_site1702]	7.75 ± 0.71
TAATTAAAATTATCTACACACCTTTATAAATATATA [CACACA_site3928]	7.61 ± 0.47
AAAAAAAGTTGATACTGTACTCGTGCATTATGAATA [XGTACX_site5558]	11.3 ± 0.57
CTTATTAAAATTATTTGTACACAATATGTAAAAGTA [XGTACX_site7237]	8 ± 0.35
AGGTATTTTCTTGTGACACACATATATATATATATT [CACACA_site2220]	8.27 ± 0.59
TTTATATTGATATATACACACATATACATCCTATTT [CACACA_site7442]	7.71 ± 0.48
ATTATTGTTGTTCATGTACACACTATAATAAAAGCA [CACACA_site4168]	8 ± 0.42
TTTTGCAATAATGTTGCACACTAAATAGTCATATAT [CACACA_site7977]	9.07 ± 0.13
ATTAATTATTTCAATGCATGTGAACACTATATATAA [TGCATGCA_site600]	8.11 ± 0.75
TAAATATTTTTATGGGTGCGTTCTTTAGCGCAATTT	9.69 ± 0.29
CATATAAAAAATATGGTGCAGTTTTTTTTTTTTTTT	10.2 ± 0.23
TATATATATAATGTTTGTACATATTAAATATATATG [XGTACX_site407]	8.65 ± 0.099
TAAATACAAAAATGTACACACATATATATATTTTTA [CACACA_site3503]	7.78 ± 0.3
CGGCACATTATATATACACACATATAAATATATACA [CACACA_site8086]	7.92 ± 0.26
TAAATTTTAATATGCACACAAAATGTTATATTAAAA [CACACA_site4366]	9.13 ± 0.35
TATATAAATATATATACACACAAAAAAAAAAAAAAA [CACACA_site1406]	8.07 ± 0.59
TATATCTTAATATACACACACACATATATATATATA [CACACA_site4968]	9.26 ± 0.42

Sequence	gcPBM binding intensity (ln)
TAAATGAAAACCATTAGTACTTATACTGATAAATGT [XGTACX_site763]	7.61 ± 0.59
AAAAATAAAATAATATGTACATATATAATATATATA [XGTACX_site4786]	8.19 ± 0.37
TATTCGAAAATTATTCAAATTATCTAACATATTATT [TGCATGCA_negctrl_site70]	7.33 ± 0.28
TAATTTTTTAGACACACACACATATAAATATAAATA [CACACA_site6195]	7.89 ± 0.38
AATTGGAAACAACCAAAAAAATTAAAGTTGTATCCT [CACACA_negctrl_site565]	7.22 ± 0.6
TTGTATATTATATGTACACACAATAAGTTAATATAA [CACACA_site909]	7.85 ± 0.38
ATAATATATTTTTGAACACACAATATAGATTTATAT [CACACA_site7857]	7.62 ± 0.61
TTCCTTTGTCCTAACTGTACTCAAATTTATTAGTGG [XGTACX_site226]	7.93 ± 0.42
TATATATATAAGTGCACACTGAACCAAGAAAATTAT [CACACA_site3008]	10.5 ± 0.16
CGGCACATTATATATACACACATATAAATAAATACA [CACACA_site4477]	7.62 ± 0.49
GGATTGATAAGTGGTACACACATATAGATTATAGAT [CACACA_site7367]	8.1 ± 0.38
ATTTATATAAAGAATGTACACACAGAAATGCACCCA [CACACA_site8715]	11 ± 0.83
AATATTAAATGAAAAAGTACAAACAGTCCTATATTA [XGTACX_site1926]	7.58 ± 0.49
AAAAAAAAAAAACATACACACAAATAAATACATACA [CACACA_site6073]	7.67 ± 0.47
TAAATATATATATGTGTGCACTTCTTCATTTTAATA [GTGCAC_site9537]	10.01 ± 0.042
CGTATGCACAAATTATGTACTTATATATATATATAT [XGTACX_site2348]	9.27 ± 0.22
AGCAACCTGAAAAAATTACTCTTTCTTAAACAAATT [XGTACX_negctrl_site266]	7.55 ± 0.64
CACAGACACGGACACACACACACACCCATATATATA [CACACA_site4354]	8.44 ± 0.64
ATACAAGAATTAAACACACACAAAATATAAATTCTT [CACACA_site3005]	7.85 ± 0.71
TTAAGGATTAAGGTGTGTACATATAAATATTATATA [XGTACX_site7532]	7.87 ± 0.5
ACCTGTAAAAATGTTTATATATATATATATATATAT [CACACA_negctrl_site1500]	9.63 ± 0.35
AAAAAAAAAAAAAATTGTACATAATAAAAATATGGA [XGTACX_site3189]	7.98 ± 0.49
TGTTTATTCTTTAAATATTATTCAAATACTACAAGT [CACACA_negctrl_site746]	7.5 ± 0.4

Sequence	gcPBM binding intensity (ln)
AATTAATGGGTACATACACACATATATACCTACATA [CACACA_site4572]	7.83 ± 0.37
TCCATTTATAAATTAGCATGCAATCTATGTCTGATA [TGCATGCA_site1045]	7.57 ± 0.59
ATCAAAAGAAAACACACACACATACAGATATATATA [CACACA_site5974]	7.99 ± 0.94
ATATATCAATATAAAAGTACAAACAAAAAATAATCA [XGTACX_site7559]	7.87 ± 0.52
GATATATACTCCATCACACACCAAAAAGAAAAAAGA [CACACA_site7242]	7.92 ± 0.45
ATATATATATATATATGTACATATTTCTCCATTTTT [XGTACX_site2869]	9.25 ± 0.81
GCATTGTCCATGCGCACACACTACTAGAATAATATG [CACACA_site5932]	8.48 ± 0.55
AAACCGTGGGAGCACACACACACACCGACACATATA [CACACA_site4338]	8.37 ± 0.53
GTTTTTTATAATTGTAGTACAAGAAGATATTTTTAT [XGTACX_site5443]	8.09 ± 0.3
TGCAATTGTAAAGGCGCACACATATATATATATATA [CACACA_site4894]	9.49 ± 0.26
CATATTTTTATAAATTGTACGTATATTATATATATA [XGTACX_site1816]	8.49 ± 0.26
CCATCTAAACACAACTCGAGTTGGATGTGTGAACTT [XGTACX_negctrl_site83]	7.59 ± 0.59
GCTTTTGTCATGTGCACACACGTATATATTATATAT [CACACA_site6146]	10.44 ± 0.085
ATTTATATTTGTATTTGTACTTATATTTATATTTAT [XGTACX_site1540]	7.72 ± 0.35
AAAAAGGTTAAGGTAGTGCATAATAAAGAATATTAA	11 ± 0.45
CTATTATAATATTTTACACACCATGTAAAATATATA [CACACA_site3206]	7.75 ± 0.39
ATCATTCTTCATTTGTCACACATGATAAAAATATAT [CACACA_site4953]	8.16 ± 0.48
CTATTTTGGATGTGTACACATATATATATTTATATT [CACACA_site5706]	8.19 ± 0.35
CATTAACATTTTATTACACACAATAATTTATAAGTA [CACACA_site4083]	7.91 ± 0.38
TTTTTTAAGTAATGAAATGATTTTCTTATAGAATAA [GTGCAC_negctrl_site395]	7.25 ± 0.55
